Results published in the antibiotic and cytotoxicity screens of Wong et al. (2023).
The other results are listed elsewhere or left out.

System: S. aureus RN4220
Assay: growth inhibition call (relative growth <= 0.2)
Conditions: 50 µM

Growth inhibition call, inactive:
C[C@@H]1CCCCO[C@H](CN(C)S(=O)(=O)c2cn(C)cn2)[C@@H](C)CN([C@H](C)CO)C(=O)c2cc(NC(=O)c3ccncc3)ccc2O1
C[C@@H]1CCCCO[C@H](CN(C)S(=O)(=O)c2cccs2)[C@@H](C)CN([C@@H](C)CO)C(=O)c2cc(NC(=O)Nc3ccc(F)cc3)ccc2O1
COc1ccc(CN(C)C[C@@H]2Oc3ccc(NC(=O)CCCN(C)C)cc3C(=O)N([C@@H](C)CO)C[C@H]2C)cc1
C[C@H]1CN([C@@H](C)CO)C(=O)CCCn2cc(nn2)CO[C@H]1CN(C)C(=O)c1ccc(N2CCN(C)CC2)cc1
COc1ccccc1C(=O)Nc1ccc2c(c1)C(=O)N(C)[C@@H]1CC[C@H](CC(=O)NCCc3ccncc3)O[C@H]1CO2
COc1ccc(S(=O)(=O)Nc2ccc3c(c2)C(=O)N([C@H](C)CO)C[C@@H](C)[C@@H](CN(C)C(=O)NC(C)C)O3)cc1
Cc1cc(C(=O)c2cc3cc(Cl)ccc3o2)ccc1Cl
NNC(=S)Nc1cccc(F)c1
C[C@H]1CN([C@@H](C)CO)C(=O)Cc2cc(NC(=O)C3CC3)ccc2O[C@@H]1CN(C)Cc1ccc2c(c1)OCO2
CC(=O)n1cc([C@@H]2C=C(C(=O)N3CCN(Cc4ccc5c(c4)OCO5)CC3)O[C@H](OCc3ccc(COC(=O)NCCCCCC(=O)NO)cc3)C2)c2ccccc21
C[C@@H]1CCCCO[C@@H](CN(C)S(C)(=O)=O)[C@H](C)CN([C@@H](C)CO)C(=O)c2cc(NC(=O)Nc3ccc(C(F)(F)F)cc3)ccc2O1
O=c1nc(N2CCc3ccccc3C2)cn[nH]1
COc1ccc(NC(=O)Nc2ccc3c(c2)C(=O)N([C@@H](C)CO)C[C@@H](C)[C@@H](CN(C)S(=O)(=O)c2c(C)noc2C)OCCCC[C@@H](C)O3)cc1
N=C(N=C(N)N)Nc1cccc(Cl)c1
FC(F)(F)c1ccccc1-c1ncc(-c2ccccc2)o1
COc1ccc(S(=O)(=O)Nc2ccc3c(c2)C(=O)N([C@H](C)CO)C[C@@H](C)[C@H](CN(C)C(=O)C2CCCCC2)OCCCC[C@H](C)O3)cc1
C[C@H](O)C#Cc1ccc2c(c1)O[C@H](CN(C)C(=O)CN(C)C)[C@@H](C)CN([C@H](C)CO)S2(=O)=O
C[C@@H]1CN([C@@H](C)CO)C(=O)Cc2cc(NC(=O)Cn3cnnn3)ccc2O[C@@H]1CN(C)S(=O)(=O)c1ccc(F)cc1
COc1ccc(C(=O)NCc2ccc(OCCN(C)C)cc2)cc1OC
C[C@@H]1CN([C@H](C)CO)C(=O)c2cccc(NS(=O)(=O)c3ccc(Cl)cc3)c2O[C@H]1CN(C)Cc1ccc(C(=O)Nc2ccccc2N)cc1
C[C@H]1CN([C@@H](C)CO)C(=O)c2cc(NC(=O)c3ccncc3)ccc2O[C@@H]1CN(C)Cc1ccc(Oc2ccccc2)cc1
C[C@H]1CCCCO[C@@H](CN(C)C(=O)Nc2ccc3c(c2)OCO3)[C@@H](C)CN([C@@H](C)CO)C(=O)c2cc(NC(=O)Nc3ccc(F)cc3)ccc2O1
COc1ccc(NC(=O)N(C)C[C@@H]2OCCCC[C@@H](C)Oc3ccc(NC(=O)Nc4ccc(F)cc4)cc3C(=O)N([C@H](C)CO)C[C@H]2C)cc1
CCC[C@@H](N[C@H]1CCS(=O)(=O)C1)C(=O)O
CN1C(=O)c2cc(NC(=O)Cc3cccs3)ccc2OC[C@H]2O[C@@H](CC(=O)NCc3ccc(-c4ccccc4)cc3)CC[C@@H]21
Cc1cc(C)nc(C#N)n1
OCCn1cncn1
C[C@@H]1CN([C@H](C)CO)C(=O)c2cccc(NC(=O)c3nc4ccccc4s3)c2O[C@H]1CN(C)Cc1ccc(C(F)(F)F)cc1
Cc1ccc(S(=O)(=O)Nc2ccc3c(c2)C(=O)N([C@H](C)CO)C[C@H](C)[C@@H](CN(C)C(=O)Nc2ccc4c(c2)OCO4)OCCCC[C@H](C)O3)cc1
